# Test results as given in the supplement of paper PMC3656093.
# Where “and” joins values, the source holds several entries; their conditions need not be identical. Equal values may be shown once. ± gives the standard deviation of the averaged measurements. Whole data set: some 1,900 compounds, median “CD40L-induced NF-kB luciferase activity, plate-corrected, relative to DMSO (0) and IKK inhibitor VII (-100) controls” near 0.032, cut for the lowest 2% near -26. The list shows a part of the results.
# Tested on: BL2-NFkB-Luc
# Assay: CD40L-induced NF-kB luciferase activity, plate-corrected, relative to DMSO (0) and IKK inhibitor VII (-100) controls (% normalized activity); higher = more NF-kB reporter activity (less inhibition)
# Details: 9.4 µM; stimulus: tCD40L 64 ng/ml; 4.5 h
# Procedure: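 BL2 B cells with a stable NF-kB response-element luciferase reporter (BL2-NFkB-Luc), 384-well. Cells were pre-incubated with compound at 9.4 uM for 1 h at 37 C, then stimulated with 64 ng/ml trimerized CD40L for 4.5 h; luciferase was read with Steady-Glo. Signal was normalised per plate in Genedata (median DMSO neutral control = 0, median IKK inhibitor VII at 50 uM = -100) with Assay Median plate-pattern correction; duplicate plates.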
row,SMILES,CD40L-induced NF-kB luciferase activity
1,CC(C)CC1c2[nH]c3ccccc3c2CCN1C(=O)CCC(=O)N(C)C (stereo not given),2.58 ± 4
2,CC(=O)[C@H]1CC[C@H]2[C@@H]3C[C@H](C)C4=CC(=O)CC[C@]4(C)[C@H]3[C@@H](O)C[C@]12C,-18 ± 1.2
3,CCCCNC(=O)NS(=O)(=O)c1ccc(C)cc1,-0.99 ± 6.9
4,O=C(O)c1cc(-c2ccc(F)cc2F)ccc1O,-4.8 ± 1.6
5,C[C@]12CC[C@@H]3c4cc(O)c(O)cc4CC[C@H]3[C@@H]1CC[C@@H]2O,0.135 ± 0.014
6,COC(=O)c1cc(OC)c(OC)c(OC)c1[N+](=O)[O-],-2.34 ± 0.27
7,COc1ccc2nc(NC(=O)Nc3ccccc3)sc2c1,39.5 ± 3.5
8,CNCCC(Oc1ccc(C(F)(F)F)cc1)c1ccccc1 (stereo not given),1.22 ± 1
9,Cc1ccc(C(=O)NCCNC(=O)c2ccccc2)cc1,-2.5 ± 3.9
10,CC(=O)Nc1cc(O)cc(O)c1,-0.191 ± 1.3
11,Cc1nnc(SCC(=O)N2CCCC(C(=O)c3ccc(Cl)cc3)C2)o1 (stereo not given),1.57 ± 0.7
12,CCn1c2ccccc2c2cc(CC(N)=O)ccc21,-1.45 ± 1.4
13,CCn1c(/C=C/c2ccccc2)nc2ccccc2c1=O,4.25 ± 3.8
14,O=C(Nc1nc2ccccc2s1)c1ccc(F)cc1,41.8 ± 8.4
15,COc1ccc(/C=C/C(=O)NC(=S)NN2CCCCC2c2cccnc2)cc1 (stereo not given),1.59 ± 3.4
16,COc1ccc(OC(C)C(=O)Nc2ccccc2F)cc1 (stereo not given),3.77 ± 0.15
17,CC(C)COCC(CN(Cc1ccccc1)c1ccccc1)N1CCCC1 (stereo not given),1.3 ± 2
18,CC(C)OC(=O)C1C2C=CC3(CN(CC4CCCO4)C(=O)C13)O2 (stereo not given),-1.72 ± 3.7
19,COc1cc2c(cc1OC)C(c1ccc(-c3cc(Cl)ccc3Cl)o1)=NCC2,-21.6 ± 0.51
20,CC(CCCC(C)(C)O)NC(=O)c1ccc(OC2CCN(C(=O)C3CC3)CC2)cc1 (stereo not given),1.52 ± 2
21,COc1cc(OC)cc(C(C)=O)c1,-2.98 ± 1.2
22,Cc1ccc2[nH]c3c(c2c1)CN(C(=O)CN1CCSCC1)CC3,3.7305 ± 0.0021
23,NCCOc1ccccc1OCCN,-0.756 ± 1.2

row,SMILES,CD40L-induced NF-kB luciferase activity
1,Cc1ccc(-n2ncc3c(Nc4cccc(C(=O)O)c4)ncnc32)cc1,12.4 ± 6.6
2,O=C(CS(=O)(=O)Cc1ccccc1)NCc1ccc2c(c1)OCO2,-3.03 ± 2.5
3,CCCCOC(=O)c1ccc(N)cc1,25.3 ± 1.5
4,O=C(Nc1cccc(-c2nc3ncccc3o2)c1)c1ccccc1,18.4 ± 0.69
5,O=C(NCCCCCc1nc2ccccc2[nH]1)c1ccccc1Cl,-2.51 ± 3.2
6,COc1ccc2oc(=O)c(C(=O)N3CCN(c4ccccc4)CC3)cc2c1,19.5 ± 0.31
7,Cc1ccsc1C1NC(=O)c2ccccc2N1 (stereo not given),17 ± 6.1
8,COc1ccc(OC(C)C(=O)Nc2ccc([N+](=O)[O-])cc2)cc1 (stereo not given),-0.769 ± 2.6
9,CCOc1ccc2ccccc2c1CNc1nnnn1C,6.61 ± 2
10,Cc1ccc2ncnc(NCCCCCC(=O)O)c2c1,1.46 ± 3.8
11,CC(C)Oc1ccc(C(CC(=O)O)c2ccc(F)cc2)cc1 (stereo not given),4.87 ± 0.57
12,O=C(c1ccco1)N(CCC(c1ccccc1)c1ccco1)Cc1ccco1 (stereo not given),-2.31 ± 2.8
13,CO[C@@]1(NC(=O)Cc2cccs2)C(=O)N2C(C(=O)O)=C(COC(N)=O)CS[C@@H]21,0.75 ± 1.5
14,O=C(c1cc2cc(Br)ccc2o1)N1CCCCC1,66.7 ± 7.9
15,O=C(O)CCSCCC(=O)O,0.0797 ± 0.66
16,COc1ccc(CCN2CNc3c(c(=O)n(C)c(=O)n3C)C2)cc1OC,-3.52 ± 5.4
17,COc1ccc(CN(CCC(c2ccccc2)c2ccc(OC(C)C)cc2)C(=O)CCl)cc1OC (stereo not given),-0.026 ± 5.1
18,CC(C)OC(=O)C1C(=O)CC(C)(O)C(C(=O)OC(C)C)C1c1cccc(O)c1 (stereo not given),-1.77 ± 1.2
19,COc1cc(Cc2cnc(N)nc2N)cc(OC)c1OC,2.83 and 2.74
20,CC(CCc1ccccc1)NC(=O)/C=C/c1ccccc1 (stereo not given),7.27 ± 1.9
21,CC(C)(C)OC(=O)N1CCCC1C(=O)NC(Cc1ccccc1)C(=O)O (stereo not given),1.85 ± 0.87
22,CC[N+]1(C)CC2CCC(C)(C1)C2(C)C (stereo not given),3.62 ± 0.84
23,COCCn1c(SCCOc2ccccc2)nc2ccccc2c1=O,-6.31 ± 2

row,SMILES,CD40L-induced NF-kB luciferase activity
1,COC(=O)c1cc(OC)c(OC)cc1NC(=O)Nc1ccc(OC)cc1OC,-0.98 ± 1.1
2,O=C(COc1ccccc1)N1CCN(c2ccccc2)CC1,-1.73 ± 4.1
3,COc1ccc(-c2c[n+](CC(=O)OC3CC(C)CCC3C(C)C)c3n2CCC3)cc1 (stereo not given),-4.45 ± 0.4
4,COc1cc(C(=O)OCCn2c(=O)c3c(ncn3CCN(C)C)n(C)c2=O)cc(OC)c1OC,-3 ± 1.3
5,COc1ccc(CN2CCC(=O)NC2=O)cc1,4.64 ± 6
6,C#C[C@]1(O)CC[C@H]2[C@@H]3CCc4cc(OC5CCCC5)ccc4[C@H]3CC[C@@]21C,1.12 ± 8.5
7,CN(C)CCC=C1c2ccccc2CCc2ccccc21,-1.99 ± 3.8
8,Cc1ccnc2c1NC(=O)c1cccnc1N2C1CC1,-6.86 ± 6.4
9,Cn1c(=O)c2[nH]cnc2n(C)c1=O,3.7 ± 1.2
10,CCOC(=O)C1C2C=CC3(CN(c4ccc(Cl)c(F)c4)C(=O)C13)O2 (stereo not given),-3.38 ± 0.57
11,COc1ccc(CNCCC(c2ccc(F)cc2)c2ccc(OC(C)C)cc2)cc1OC (stereo not given),-4.66 ± 12
12,COc1c(C)cc(C(=O)C2CCCN(Cc3ccc(Oc4ncccn4)cc3)C2)cc1C (stereo not given),-10.3 ± 4.3
13,CC(C)COCC1CC2(CC(C)(c3csc(N)n3)OC2=O)C(=O)O1 (stereo not given),3.24 ± 5.5
14,C[C@]12CC[C@H]3C(=CCc4cc(O)ccc43)[C@@H]1CCC2=O,9.18 ± 7
15,CCOC(=O)C1=C(N)Oc2c(oc(CO)cc2=O)C1c1ccc(F)c(F)c1 (stereo not given),0.569 ± 3.4
16,CCc1ccc2oc(=O)cc(CN3CCC(C)CC3)c2c1,1.94 ± 3.7
17,Cc1ncc([N+](=O)[O-])n1CC(O)CCl (stereo not given),2.48 ± 3.2
18,Nc1ccc(S(N)(=O)=O)cc1N,3.48 ± 1
19,Cc1cccc(C)c1NC(=O)C1CCCCN1C (stereo not given),-0.386 ± 0.61
20,CCOC(=O)c1c(C)oc2cc(Br)c(OC(C)C(=O)OCC)cc12 (stereo not given),0.454 ± 1.2
21,COc1ccc(C2C(=O)c3ccccc3C2=O)cc1,0.868 ± 0.29
22,CC(=O)Oc1ccc2c(=O)c(Oc3ccccc3[N+](=O)[O-])coc2c1,5.53 ± 3.6
23,CC(C)(S)[C@@H](N)C(=O)O,-6.24 ± 3.3

row,SMILES,CD40L-induced NF-kB luciferase activity
1,COc1ccc(C(=O)Nc2ncc3c(n2)CC(C)CC3=O)cc1 (stereo not given),11.6 ± 4.2
2,C=C(C)c1nc2cc(OC)c(OC)cc2c(=O)o1,-30.6 ± 9.3
3,CC(=O)O[C@H]1CSC[C@H]1NC(=O)c1ccccc1,2.65 ± 7.7
4,O=C1CCCC(=O)C1=Cc1c[nH]c2ccccc12,-7.53 ± 0.79
5,COC(=O)c1cc(-c2c(C)oc3cc(OC)ccc3c2=O)c(C)o1,1.37 ± 6.7
6,COC(=O)c1[nH]c2ccccc2c1NC(=O)CN1CCN(C/C=C/c2ccccc2)CC1,-0.625 ± 8.3
7,COc1ccc(-c2cc(=O)oc3c(C)c(O)c(CN(C)C)cc23)cc1,-15.2 ± 1.7
8,O=Cc1ccc(O)c(O)c1,-3.1 ± 0.27
9,C[C@H](NC(=O)NCCc1ccccc1)C(=O)O,-5.96 ± 5.1
10,CC(C)(C)C(=O)NCCCNc1ccc([N+](=O)[O-])cc1,7.16 ± 1.3
11,CN1CCCN=C1COC(=O)C(O)(c1ccccc1)C1CCCCC1 (stereo not given),-2.5 ± 2.7
12,Cc1cc(C)cc(Nc2nc3c([nH]2)c(=O)n(C)c(=O)n3C)c1,-2.98 ± 0.36
13,C=CCC1(Cl)C(=O)C(Cl)=C(N2CCOCC2)C1(OC)OC (stereo not given),4.5 ± 3.7
14,CCC(=O)c1ccc(O)cc1,-2.02 ± 12
15,COc1ccc(C(C)=O)c2c1OCCO2,0.693 ± 3.3
16,Cn1c(=S)n(C)c2ccccc21,-1.98 ± 2.4
17,CCOc1ccc(N2C(=O)CC(NCCNc3ccc([N+](=O)[O-])cn3)C2=O)cc1 (stereo not given),-0.123 ± 2.1
18,CC(=O)O[C@H]1C[C@@]2(C)[C@@H](C[C@@H](O)[C@H]3[C@@]4(C)CC[C@@H](O)[C@@H](C)C4CC[C@@]32C)/C1=C(\CCC=C(C)C)C(=O)O (stereo not given in full),-1.41 ± 3.7
19,CC(C)(Sc1cc(C(C)(C)C)c(O)c(C(C)(C)C)c1)Sc1cc(C(C)(C)C)c(O)c(C(C)(C)C)c1,-2.01 ± 8.5
20,CSCCC(NC(C)=O)C(=O)Oc1ccc2c3c(c(=O)oc2c1)CCCC3 (stereo not given),-1.07 ± 0.87
21,C[N+](C)(C)CCOP(=O)(O)OP(=O)(O)OC[C@H]1O[C@@H](n2ccc(N)nc2=O)[C@H](O)[C@@H]1O,-3.79 ± 4.1
22,COc1ccc(-c2c(NC(=O)c3ccco3)n(C)c3ccccc3c2=O)cc1,-0.968 ± 2.7
23,OC(CCCN1CCC(O)(c2ccc(Cl)cc2)CC1)c1ccc(F)cc1 (stereo not given),-5.07 ± 4.1

row,SMILES,CD40L-induced NF-kB luciferase activity
1,CN1CCC(=C2c3ccccc3CC(=O)c3sccc32)CC1,-2.13 ± 3.6
2,COc1ccc(NC(=S)N2CCN(CCN3C(=O)c4cccc5cccc(c45)C3=O)CC2)cc1,1.19 ± 0.65
3,COc1ccccc1N1CCN(CC(O)COc2cccc3ccccc23)CC1 (stereo not given),-8.19 ± 1.9
4,COc1cc2c(cc1OC)-c1cc(OCc3ccccc3Cl)nc(=O)n1CC2,-0.322 ± 1.2
5,Cc1ccc2c(CC(=O)O)coc2c1,-1.36 ± 1.1
6,CCOC(=O)NN1C(=O)c2ccccc2NC1c1ccc(OC)c(OC)c1 (stereo not given),0.7423 ± 0.0022
7,COc1cc(OC)c(C(=O)CCCN2CCCC2)c(OC)c1,-7.12 ± 15
8,CCN1CCn2c3c(c4cc(Cl)ccc42)CCCC31 (stereo not given),6.49 ± 1.6
9,C[C@]12C=CC(=O)C=C1CCC1C3CC[C@](O)(C(=O)CO)[C@@]3(C)CC3OC312 (stereo not given in full),-7.42 ± 5.5
10,O=C1C=CC(=O)C(C2=C3C(=O)N(CCc4ccccc4)CC(=O)N3CCC2)=C1,-42.7 ± 2.4
11,COc1ccccc1-c1c(C(F)(F)F)oc2cc(OC(=O)c3ccc([N+](=O)[O-])cc3)ccc2c1=O,26.6 ± 3.1
12,CCC(NC(C)C)C(O)c1ccc(O)c(O)c1 (stereo not given),-6.27 ± 12
13,CC(C)C1CC(CCNCc2ccc(N(C)C)cc2)(c2ccccc2)CCO1 (stereo not given),-4.73 ± 11
14,CN1CCc2cccc3c2[C@H]1Cc1ccc(O)c(O)c1-3,-15.5 ± 14
15,CCOc1ccc(OCCSc2nc3ccccc3[nH]2)cc1,16 ± 4
16,c1cnc2c(c1)ccc1cccnc12,-7.58 ± 0.49
17,CC1(C)CC(=O)c2cc(O)ccc2O1,-0.318 ± 0.62
18,Cc1ccc2nc(N=C(N)N)nc(C)c2c1,7.05 ± 1.1
19,COc1cc(C(=O)N/C(=C\c2cn(C)c3ccccc23)C(=O)NCCCO)cc(OC)c1OC,3.2 ± 3.9
20,CCn1ccnc1CN(C)Cc1cn(-c2cccc(C)c2)nc1-c1cccc(F)c1,-2.44 ± 2.7
21,Cc1ccc(-c2nn(-c3cccc(F)c3)cc2CN2CCN(c3ccccn3)CC2)o1,-0.649 ± 2.2
22,COc1cc(C2Nc3ccccc3C(=O)N2c2ccccc2)ccc1O (stereo not given),28.6 ± 3
23,N/C(=N\OC(=O)CCCOc1ccc(Cl)cc1Cl)c1ccccn1,4.49 ± 1
